AUC and IC50 data for 68 cell lines are collected here from the supplement of paper PMC4967469.

Lines with a small IC50 respond at low doses; fits outside the tested doses are given as limits. AUC sums up the same curve from the lowest dose to the 256-fold higher top dose; the more sensitive the line, the further below 1. An inferred top dose is not printed in the source and was worked back from the curve model. Some results are limits rather than exact numbers.

Compound in this test: O=C1NC(=O)/C(=C\c2ccc3nccnc3c2)S1 [AS605240]
As to the kind of experiment: Viability of human cancer cell lines after 72 h of drug (GDSC screen). The following applies: top dose inferred. The procedure:
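Human cancer cell lines in 384-well plates, medium with 10% serum, drug for 72 h over a 256-fold dose range (nine 2-fold or five 4-fold steps up to the top dose). Adherent lines were fixed and stained with the nucleic acid dye Syto60, suspension lines read with resazurin; signal relative to control wells, capped at 0 and 100%. One two-parameter sigmoid per drug and line, fitted in a mixed model over all curves with the slope shared within a line.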
For “EMC-BAC-1 (lung adenocarcinoma, adherent, top dose 20 µM)”, the AUC was determined as 0.902 and the IC50 was above 20 µM.

On to “EMC-BAC-2 (lung adenocarcinoma, adherent, top dose 20 µM)”, for which the AUC amounted to 0.845 and the IC50 is 18.6 µM.

As to “EN (endometrium, adherent, top dose 20 µM)”, the AUC is 0.968 and the IC50 was above 20 µM.

In the case of “EPLC-272H (lung squamous cell carcinoma, adherent, top dose 20 µM)”, the AUC came to 0.716 and the half-maximal inhibitory concentration (IC50) was determined as 5.57 µM.

For “ES1 (Ewing sarcoma, adherent, top dose 20 µM)”, the AUC worked out at 0.896 and the IC50 is above 20 µM.

For “ES3 (Ewing sarcoma, adherent, top dose 20 µM)”, the AUC turned out to be 0.93 and the IC50 was above 20 µM.

As for “ES4 (Ewing sarcoma, adherent, top dose 20 µM)”, the AUC stood at 0.839 and the 50% inhibitory concentration (IC50) was determined as 16.7 µM.

For “ES5 (Ewing sarcoma, adherent, top dose 20 µM)”, the AUC was 0.731 and the IC50 was 6.35 µM.

Turning to “ES6 (Ewing sarcoma, adherent, top dose 20 µM)”, the AUC came to 0.85 and the 50% inhibitory concentration (IC50) was above 20 µM.

As for “ES7 (Ewing sarcoma, adherent, top dose 20 µM)”, the AUC worked out at 0.761 and the half-inhibitory concentration (IC50) is 7.28 µM.

On to “ES8 (Ewing sarcoma, adherent, top dose 20 µM)”, for which the AUC is 0.894 and the IC50 is above 20 µM.

Take ES-2 (ovary, adherent, top dose 20 µM): the AUC was 0.895 and the half-inhibitory concentration (IC50) was found to be 19.2 µM.

Take “ESO26 (oesophagus, adherent, top dose 20 µM)”: the AUC stood at 0.974 and the concentration for half-maximal inhibition (IC50) was above 20 µM.

Take “ESO51 (oesophagus, semi-adherent, top dose 20 µM)”: the AUC amounted to 0.653 and the IC50 stood at 3.96 µM.

“ESS-1 (endometrium, adherent, top dose 20 µM)”: the AUC was 0.948 and the concentration for half-maximal inhibition (IC50) is above 20 µM.

In the case of “ETK-1 (biliary tract, adherent, top dose 20 µM)”, the AUC was found to be 0.87 and the half-maximal inhibitory concentration (IC50) was above 20 µM.

For “EVSA-T (breast, adherent, top dose 20 µM)”, the AUC was 0.928 and the half-maximal inhibitory concentration (IC50) was above 20 µM.

For “EW-1 (Ewing sarcoma, semi-adherent, top dose 20 µM)”, the AUC is 0.674 and the IC50 is 3.64 µM.

In the case of “EW-3 (Ewing sarcoma, adherent, top dose 20 µM)”, the AUC worked out at 0.824 and the IC50 is 14.1 µM.

In the case of “EW-7 (Ewing sarcoma, semi-adherent, top dose 20 µM)”, the AUC amounted to 0.842 and the IC50 amounted to 11.6 µM.

Take “EW-11 (Ewing sarcoma, adherent, top dose 20 µM)”: the AUC turned out to be 0.711 and the IC50 amounted to 5.94 µM.

As for “EW-13 (Ewing sarcoma, suspension, top dose 20 µM)”, the AUC turned out to be 0.7 and the IC50 was found to be 4.88 µM.

Regarding “EW-16 (Ewing sarcoma, adherent, top dose 20 µM)”, the AUC was found to be 0.873 and the IC50 is above 20 µM.

Take “EW-18 (Ewing sarcoma, suspension, top dose 20 µM)”: the AUC worked out at 0.829 and the IC50 stood at 13.6 µM.

Turning to “EW-24 (Ewing sarcoma, semi-adherent, top dose 20 µM)”, the AUC is 0.98 and the concentration for half-maximal inhibition (IC50) is above 20 µM.

Turning to “EoL-1-cell (haematopoietic neoplasm, suspension, top dose 20 µM)”, the AUC worked out at 0.856 and the 50% inhibitory concentration (IC50) came out at 13.2 µM.

On to “FADU (head and neck, adherent, top dose 20 µM)”, for which the AUC turned out to be 0.89 and the half-maximal inhibitory concentration (IC50) is above 20 µM.

Take “FLO-1 (oesophagus, adherent, top dose 20 µM)”: the AUC was determined as 0.881 and the IC50 is above 20 µM.

As to “FTC-133 (thyroid, adherent, top dose 20 µM)”, the AUC came to 0.974 and the half-inhibitory concentration (IC50) was above 20 µM.

For “FU97 (stomach, adherent, top dose 20 µM)”, the AUC came out at 0.867 and the 50% inhibitory concentration (IC50) turned out to be 18.9 µM.

In the case of “FU-OV-1 (ovary, adherent, top dose 20 µM)”, the AUC was 0.719 and the IC50 was determined as 6.44 µM.

“Farage (B-cell lymphoma, suspension, top dose 20 µM)”: the AUC is 0.81 and the IC50 stood at 8.27 µM.

With “G-292 Clone A141B1 (osteosarcoma, adherent, top dose 20 µM)”, the AUC stood at 0.976 and the concentration for half-maximal inhibition (IC50) was above 20 µM.

As to “G-401 (kidney, adherent, top dose 20 µM)”, the AUC is 0.848 and the IC50 amounted to 17.1 µM.

Take “G-402 (soft tissue, adherent, top dose 20 µM)”: the AUC was found to be 0.811 and the IC50 worked out at 15.3 µM.

Take “G-MEL (melanoma, adherent, top dose 20 µM)”: the AUC came to 0.118 and the IC50 is below 0.0781 µM.

In the case of “GAK (melanoma, adherent, top dose 20 µM)”, the AUC came to 0.93 and the IC50 was above 20 µM.

On to GAMG (glioma, adherent, top dose 20 µM), for which the AUC turned out to be 0.884 and the 50% inhibitory concentration (IC50) was above 20 µM.

Turning to GB-1 (glioma, adherent, top dose 20 µM), the AUC came out at 0.79 and the concentration for half-maximal inhibition (IC50) worked out at 10.7 µM.

On to “GCIY (stomach, adherent, top dose 20 µM)”, for which the AUC was 0.696 and the IC50 is 4.81 µM.

For “GCT (soft tissue, adherent, top dose 20 µM)”, the AUC turned out to be 0.982 and the IC50 was above 20 µM.

Turning to “GDM-1 (acute myeloid leukaemia, suspension, top dose 20 µM)”, the AUC is 0.654 and the IC50 came to 3.28 µM.

Turning to GI-1 (glioma, adherent, top dose 20 µM), the AUC came out at 0.854 and the IC50 stood at 14.7 µM.

Take “GI-ME-N (neuroblastoma, adherent, top dose 20 µM)”: the AUC was 0.919 and the IC50 is above 20 µM.

“GMS-10 (glioma, adherent, top dose 20 µM)”: the AUC is 0.983 and the IC50 is above 20 µM.

Regarding “GOTO (neuroblastoma, adherent, top dose 20 µM)”, the AUC was determined as 0.975 and the 50% inhibitory concentration (IC50) is above 20 µM.

For the cell line “GP5d (large intestine, adherent, top dose 20 µM)”, the AUC amounted to 0.869 and the IC50 came out at 15.2 µM.

Turning to “GR-ST (lymphoblastic leukaemia, suspension, top dose 20 µM)”, the AUC worked out at 0.866 and the IC50 is above 20 µM.

Take “GRANTA-519 (B-cell lymphoma, suspension, top dose 20 µM)”: the AUC is 0.806 and the half-maximal inhibitory concentration (IC50) is 8.99 µM.

For the cell line “GT3TKB (stomach, adherent, top dose 20 µM)”, the AUC stood at 0.99 and the half-inhibitory concentration (IC50) was above 20 µM.

For H4 (glioma, adherent, top dose 20 µM), the AUC is 0.909 and the IC50 is above 20 µM.

In the case of “H9 (lymphoid neoplasm, suspension, top dose 20 µM)”, the AUC was 0.909 and the half-inhibitory concentration (IC50) came to 19.2 µM.

For the cell line “H290 (mesothelioma, adherent, top dose 20 µM)”, the AUC worked out at 0.863 and the half-maximal inhibitory concentration (IC50) turned out to be 15 µM.

As to “H513 (mesothelioma, semi-adherent, top dose 20 µM)”, the AUC was found to be 0.986 and the IC50 was above 20 µM.

On to “H2369 (mesothelioma, adherent, top dose 20 µM)”, for which the AUC was 0.969 and the IC50 was above 20 µM.

Consider “H2373 (mesothelioma, adherent, top dose 20 µM)”, for which the AUC worked out at 0.73 and the IC50 stood at 6.76 µM.

With “H2461 (mesothelioma, adherent, top dose 20 µM)”, the AUC was 0.963 and the IC50 is above 20 µM.

With “H2591 (mesothelioma, adherent, top dose 20 µM)”, the AUC was 0.959 and the concentration for half-maximal inhibition (IC50) is above 20 µM.

For the cell line “H2595 (mesothelioma, adherent, top dose 20 µM)”, the AUC stood at 0.966 and the concentration for half-maximal inhibition (IC50) was above 20 µM.

For “H2722 (mesothelioma, adherent, top dose 20 µM)”, the AUC turned out to be 0.927 and the concentration for half-maximal inhibition (IC50) is above 20 µM.

As for “H2731 (mesothelioma, adherent, top dose 20 µM)”, the AUC was 0.668 and the half-maximal inhibitory concentration (IC50) came out at 3.95 µM.

Take “H2795 (mesothelioma, adherent, top dose 20 µM)”: the AUC worked out at 0.676 and the IC50 worked out at 3.85 µM.

Regarding “H2803 (mesothelioma, adherent, top dose 20 µM)”, the AUC amounted to 0.984 and the half-inhibitory concentration (IC50) was above 20 µM.

With “H2804 (mesothelioma, adherent, top dose 20 µM)”, the AUC turned out to be 0.897 and the half-maximal inhibitory concentration (IC50) is above 20 µM.

On to “H2818 (mesothelioma, adherent, top dose 20 µM)”, for which the AUC is 0.976 and the IC50 was above 20 µM.

On to “H2869 (mesothelioma, adherent, top dose 20 µM)”, for which the AUC worked out at 0.862 and the concentration for half-maximal inhibition (IC50) is above 20 µM.

Regarding “H3118 (head and neck, adherent, top dose 20 µM)”, the AUC amounted to 0.662 and the IC50 worked out at 3.7 µM.

Consider “H3255 (lung adenocarcinoma, adherent, top dose 20 µM)”, for which the AUC was found to be 0.936 and the IC50 was above 20 µM.
